Experimental data as given in article doi:10.1101/2019.12.31.876946 (bioRxiv, 2019).

Molecular target: the molecule itself
Assay: thioflavin T fluorescence aggregation assay

B1: recombinant human tau isoform 1N3R (natural protein)
chain: not shown
With B1 as the protein, how does the “t1/2 of aggregation (ThT fluorescence)” value read?
Its value is 4.3 h.
